{
  "source": "PubChem BioAssay AID1476",
  "about": "(National Center for Advancing Translational Sciences (NCATS), 2009)",
  "note": "In all, about 200,000 compounds went through this assay and about 4,500 (2.2%) were called active. The inconclusive results got no clear call from the source; some entries with a clear call stand among them for comparison. Calls come from the whole dose curve; as a rule, active = well fitted inhibition curve with a large enough effect; inconclusive = small, poorly fitted or top-dose-only effect, or effect the other way; inactive = flat fitted curve, though single readings scatter. Potencies beside an inconclusive call are fits to weak or partial responses and may not hold up.",
  "data": [
    {"target": "Cruzipain (Trypanosoma cruzi) (UniProt P25779)", "sequence (P25779 whole entry, looked up)": "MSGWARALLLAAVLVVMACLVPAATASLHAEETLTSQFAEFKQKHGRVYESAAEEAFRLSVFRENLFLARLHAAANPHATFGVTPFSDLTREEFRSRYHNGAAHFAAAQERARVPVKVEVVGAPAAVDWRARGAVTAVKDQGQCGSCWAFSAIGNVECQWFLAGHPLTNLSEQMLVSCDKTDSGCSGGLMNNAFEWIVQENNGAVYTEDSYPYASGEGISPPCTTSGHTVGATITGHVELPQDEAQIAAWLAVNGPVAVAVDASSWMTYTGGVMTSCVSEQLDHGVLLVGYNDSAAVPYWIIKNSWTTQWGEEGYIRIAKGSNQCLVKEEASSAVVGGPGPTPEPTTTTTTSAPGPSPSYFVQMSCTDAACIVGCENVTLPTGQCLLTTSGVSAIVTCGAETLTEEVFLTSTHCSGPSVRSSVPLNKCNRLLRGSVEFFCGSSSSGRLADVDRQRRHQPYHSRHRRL", "assay": "qHTS Assay for Promiscuous and Specific Inhibitors of Cruzain (without detergent); note: nearly all actives have a fitted effect of over 40% in size; note: potency is the fitted concentration of half-maximal effect; tags give direction and shape of the fitted curve;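 for max response, negative = inhibition: plate controls were enzyme without inhibitor for no effect and buffer without enzyme for full effect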", "details": "purified cruzain, Z-FR-AMC fluorescence, no detergent", "in_short": "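Purified cruzain at 1.5 nM, pre-incubated 15 min with compound at room temperature in 100 mM sodium acetate pH 5.5, 5 mM DTT, 0.00005% Triton X-100. Reaction started with 2 uM Z-FR-AMC; AMC fluorescence increase over 60 s gives rate.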", "values": [
      {"molecule": "Cc1ccc(NC(=O)CS(=O)CC(=O)N(CC(=O)NC2CCCC2)c2cc(C)ccc2C)cc1", "note": "(stereo not drawn)", "Potency": "inconclusive: 31.6 µM [activator, single point]"},
      {"molecule": "O=C(O)c1cc2ccc3ccccc3c2oc1=O", "Potency": "active: 25.1 µM"},
      {"molecule": "Cc1nc2sccn2c(=O)c1S(=O)(=O)Nc1cc(C(F)(F)F)ccc1Cl", "max response, negative = inhibition": "inactive: -3.06%"},
      {"molecule": "COc1ccccc1CNC(=O)CSc1nnc(C)c2c(C)n(-c3ccccc3)nc12", "max response, negative = inhibition": "inactive: -3.09%"},
      {"molecule": "COc1ccc(/C=C2\\SC(=O)N(CCNC(=O)Cc3coc4cc(C)ccc34)C2=O)cc1OC", "Potency": "inconclusive: 39.8 µM [activator, single point]"},
      {"molecule": "Fc1cc(F)c2nc(Nc3nc4c(F)cccc4s3)sc2c1", "Potency": "inconclusive: 39.8 µM [inhibitor, single point]"},
      {"molecule": "COc1cnc(-c2ccccn2)nc1Oc1ccc(Cl)c2ccccc12", "Potency": "inconclusive: 31.6 µM [activator, single point]"},
      {"molecule": "CNC(=S)N(CCc1c(C)[nH]c2ccc(C)cc12)Cc1cc(OC)c(OC)c(OC)c1", "Potency": "inconclusive: 39.8 µM [activator, single point]"},
      {"molecule": "COc1cc(Cl)c(C)cc1NC(=O)CSCC#N", "Potency": "inconclusive: 25.1 µM [inhibitor, single point]"},
      {"molecule": "Cc1c(C(=O)NC2CCCc3ccccc32)oc2ccc(S(=O)(=O)N3CCCCC3)cc12", "note": "(stereo not drawn)", "Potency": "inconclusive: 25.1 µM [inhibitor, single point]"},
      {"molecule": "COc1ccc(OC)c2sc(N3CCN(C(=O)C4COc5ccccc5O4)CC3)nc12", "note": "(stereo not drawn)", "max response, negative = inhibition": "inactive: -0.959%"},
      {"molecule": "Cc1cc(C(=O)CSc2nnnn2-c2ccc(O)cc2)c(C)n1Cc1ccc2c(c1)OCO2", "Potency": "active: 15.8 µM"},
      {"molecule": "COc1ccccc1NC(=O)c1cn(C)c(=O)c2cc(OC)c(OC)cc12", "Potency": "inconclusive: 39.8 µM [activator, single point]"},
      {"molecule": "COc1ccc(C)cc1Nc1ncnc2c1c(-c1ccccc1)cn2-c1ccc(C)cc1", "Potency": "inconclusive: 3.98 µM [inhibitor, full curve]"},
      {"molecule": "Cc1cccc(N2C(=O)SC(SC(=Nc3ccccc3)Nc3ccccc3)C2=O)c1", "note": "(stereo not drawn)", "Potency": "inconclusive: 31.6 µM [inhibitor, single point]"},
      {"molecule": "O=C(Nc1ccc(Cl)cc1)[C@@H]1[C@@H]2C(=O)N(c3ccc(Cl)cc3Cl)C(=O)[C@@H]2[C@H]2C=CC=NN21", "Potency": "active: 15.8 µM"},
      {"molecule": "O=C(NCCN1CCN(c2ccccc2)CC1)c1cccn2c(=O)c3cc(Cl)ccc3nc12", "Potency": "inconclusive: 3.98 µM [activator, single point]"},
      {"molecule": "CCOCCn1ccc2c(OCC(=O)Nc3cccc(F)c3)cccc2c1=O", "max response, negative = inhibition": "inactive: 6.88%"}
    ]}
  ]
}
